According to PubChem BioAssay AID488969 (Vanderbilt High Throughput Screening Facility, 2010):
The full ranking holds about 110,000 compounds; the median of “z-score” is about -0.1, and the highest 2% start at about 2. The list shows a part of the results.

molecular target: Metabotropic glutamate receptor 8 (Rattus norvegicus) (UniProt P70579); test: mGluR8 Gi/Go-coupled signaling modulation – cell-based, rat, thallium flux, HTS, primary screen (AID 488969); conditions: HEK293 rat mGluR8, GIRK (G protein-gated inwardly rectifying potassium channel) thallium flux, FluoZin2; at 10 µM; stronger effect = higher value; submaximal glutamate (EC20) added with thallium
Sequence of UniProt P70579 (P70579 whole entry, looked up): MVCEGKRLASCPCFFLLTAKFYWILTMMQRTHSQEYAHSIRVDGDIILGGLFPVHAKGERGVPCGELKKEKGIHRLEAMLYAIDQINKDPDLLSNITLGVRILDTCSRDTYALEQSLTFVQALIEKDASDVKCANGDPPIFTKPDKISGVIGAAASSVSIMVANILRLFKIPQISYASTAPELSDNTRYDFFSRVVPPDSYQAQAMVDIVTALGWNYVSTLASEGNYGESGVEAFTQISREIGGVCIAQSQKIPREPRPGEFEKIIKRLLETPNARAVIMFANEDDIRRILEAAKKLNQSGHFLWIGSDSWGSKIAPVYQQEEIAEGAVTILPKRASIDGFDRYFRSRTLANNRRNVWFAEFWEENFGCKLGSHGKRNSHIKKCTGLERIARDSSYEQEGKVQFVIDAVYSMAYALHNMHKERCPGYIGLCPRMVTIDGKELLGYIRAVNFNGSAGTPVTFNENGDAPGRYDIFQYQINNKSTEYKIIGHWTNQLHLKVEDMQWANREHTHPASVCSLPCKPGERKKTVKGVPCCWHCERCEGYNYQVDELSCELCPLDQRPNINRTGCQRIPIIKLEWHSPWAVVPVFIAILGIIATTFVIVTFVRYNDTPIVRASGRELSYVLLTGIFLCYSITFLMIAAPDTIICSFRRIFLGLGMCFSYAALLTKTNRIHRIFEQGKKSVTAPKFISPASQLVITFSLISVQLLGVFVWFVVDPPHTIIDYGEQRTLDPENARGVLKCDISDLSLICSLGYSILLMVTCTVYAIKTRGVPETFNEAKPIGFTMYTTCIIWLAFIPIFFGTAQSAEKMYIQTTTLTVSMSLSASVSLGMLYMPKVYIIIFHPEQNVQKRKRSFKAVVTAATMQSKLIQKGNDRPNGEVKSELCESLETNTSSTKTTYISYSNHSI

SMILES	z-score
COc1cccc(NC(=O)CSc2nnnn2C(C)C)c1	-0.0541
CCOC(=O)C1=C(C)NC(=O)NC1c1ccoc1 (configuration not stated)	0.05
COc1ccc(CCN2C(=O)C(Oc3ccccc3)C2c2ccc3c(c2)OCO3)cc1 (configuration not stated)	-0.146
Cc1ccc(-c2cc(N)n(Cc3ccc(Cl)cc3)n2)cc1	-0.532
COc1cc(NC(=S)N2CCN(C(=O)c3ccco3)CC2)c(OC)cc1Cl	0.0584
O=C(Cn1nnc2ccccc21)N/N=C\C=C\c1ccccc1	-0.239
CCn1c(SCC(=O)c2ccc(C)cc2)nnc1-c1ccoc1C	-0.127
CN1CCN(S(=O)(=O)c2cccc([N+](=O)[O-])c2)CC1	-0.242
CN(C)c1ccc(NC(=O)c2cccc(C(=O)Nc3ccc(N(C)C)cc3)n2)cc1	-0.291
N#Cc1ccc(OCC(=O)N/N=C2\CCc3ccccc32)cc1	-0.239
CCOC(=O)N1CCN(C(=O)C(CC(C)C)NS(=O)(=O)c2ccc3c(c2)oc(=O)n3C)CC1 (configuration not stated)	-0.122
Cc1ccc(C(=O)COC(=O)CCCC(=O)Nc2cc(C(F)(F)F)ccc2Cl)cc1C	0.00411
CCC1CCCCN1C(=O)CSc1nnc(-c2ccc(Cl)cc2)o1 (configuration not stated)	-0.41
CC(Oc1ccccc1F)C(=O)Nc1ccc2ccccc2c1 (configuration not stated)	-0.148
COCCN=c1scc(-c2cc(OC)ccc2OC)n1/N=C/c1c[nH]c2ccccc12	-0.343
CCOc1ccc(NC(=O)CN(c2cc(C)cc(C)c2)S(=O)(=O)c2c(C)noc2C)cc1	-0.145
COc1cccc(NC(=O)c2ccccc2-c2nc(-c3ccc(F)cc3)no2)c1	0.389
COc1ccc2c(c1)[nH]c1c(=O)n(N)cnc12	0.257
O=S(=O)(NCc1ccco1)N1CCCCCC1	-0.0741
CCNC(=O)N(C)c1nncnc1C(=O)NC	0.0162
C=CCc1c(C)c(C#N)c2nc3ccccc3n2c1NCCN(C)C	-0.0726
COc1cc(OC)c(C(=O)NNC(=S)NC2CCCCC2)cc1OC	-0.573
CC(C)(C)C(=O)N1CCN(c2c(Cl)cccc2[N+](=O)[O-])CC1	-0.000363

SMILES	z-score
CC1=CC(c2ccccc2)n2nc(N3C(=O)CCC3=O)nc2N1 (configuration not stated)	-0.00161
CCCC1(C(=O)O)NC(c2ccccc2O)C2C(=O)N(c3cccc(Cl)c3)C(=O)C21 (configuration not stated)	-0.488
CCCCOc1ccc(OCCNS(=O)(=O)N(C)C)cc1	-0.0575
COC(=O)c1sc(NC(=O)c2ccc(Cn3cc(Cl)cn3)o2)c(C#N)c1C	-0.585
CC1CCCCN1C(=O)Cc1ccc(Cl)cc1 (configuration not stated)	-0.133
CCOc1cc(-c2cn(S(=O)(=O)c3cccc4nsnc34)nc2N)cc(OCC)c1OCC	-0.165
COc1ccc(-c2ccc(SCC(=O)N3c4ccccc4CC3C)nn2)cc1OC (configuration not stated)	-0.926
CC(C)(C)C(=O)Nc1ccc(N2CCCC2)cc1	-0.154
Cc1ccc(NCc2nnc(SCC(=O)c3ccc4c(c3)OCCO4)o2)c(C)c1	-0.642
O=C(c1cccs1)N1CCCC1	0.801
COC1=CCC2([N+](=O)[O-])CN(CCO)CC1([N+](=O)[O-])C2 (configuration not stated)	-0.335
C/C(=N/OCO/N=C(/C)c1ccc(F)cc1)c1ccc(F)cc1	-0.112
O=C(CSc1ncn[nH]1)Nc1c(Br)cc([N+](=O)[O-])cc1Br	-0.332
Cc1cccc(CSC(=N)N)c1	0.0999
CCN(CC)S(=O)(=O)c1ccc(NC2c3ccccc3C(=O)N2c2ccc(C)cn2)cc1 (configuration not stated)	-0.341
CC(=O)NCCn1c(C)cc2ccccc21	0.834
Fc1cnc(N2CCc3ccccc32)nc1N1CCc2ccccc21	-0.19
CC(C)CCSc1ncnc2c1oc1nc3c(cc12)COC(C)(C)C3	-0.0586
C=CCOn1c(=O)c(=O)n(OCc2ccccc2)c2ccccc21	-0.0797
O=S(=O)(c1cccc2cccnc12)n1cnc2ccccc21	-0.507
O=C(O)CCCCCN=C1CCc2ccccc2N1	-0.601
CCCCC1(CCCC)NC(=S)N(Nc2ccc(C)cc2)C1=O	-0.236
C(=C\c1ccccc1)/CN1CCN(Cc2ccc3c(c2)OCCO3)CC1	-0.204

SMILES	z-score
O=C(CNC(=O)c1cccs1)NCC(=O)OCc1ccc(Cl)cc1	-0.197
O=C(NC1(C(F)(F)F)NC(=O)N(Cc2cccnc2)C1=O)c1ccncc1 (configuration not stated)	2.13
CCN(CC)S(=O)(=O)c1ccc(NC(=O)C2CCCN(C(=O)c3ccc(Cl)cc3)C2)cc1 (configuration not stated)	-1.01
O=C(c1ccc(Cn2cc(Br)cn2)o1)n1cccn1	-0.666
CS(=O)(=O)N(CC(=O)Nc1ccc(S(=O)(=O)N2CCCC2)cc1)c1ccccc1F	-0.46
COc1ccc(OC)c(/C=N\NC(=O)CSc2nnc(CCCc3ccc(OC)c(C)c3)o2)c1	0.0122
COc1ccc(-c2nc3ccccc3[nH]2)cc1	0.164
CC(C)(C)CC(C)(C)NC(=S)NC1CCN(Cc2ccccc2)CC1	-1.42
COc1ccc(NC(=O)c2cc(OC)c(OC)c(OC)c2)cn1	-0.169
COc1ccc(-n2c(C)cc(C(=O)COC(=O)c3cc(OC)c(OC)cc3NC(=O)c3cccs3)c2C)cc1	-0.000819
COCCn1c(SCC(=O)Nc2ccc(C)cc2C)nc2c(oc3ccccc32)c1=O	0.175
COc1ccc2c(c1)c(=O)oc1cc(OCC(=O)NC3CC3)ccc12	0.671
O=C(O)CSc1ccc2ccccc2n1	-0.359
CC(C)SC1=NC(C)(C)C=C(/C=C/c2ccc(Cl)cc2Cl)N1	0.335
Cc1cc(C)nc(NC2=NCC(=O)N2CCc2c[nH]c3ccccc23)n1	0.182
CC(C(=O)NCc1ccco1)n1nc(-c2ccccc2)c2cc(Cl)ccc21 (configuration not stated)	-0.295
COc1ccc(C(C[N+](=O)[O-])c2c(C)[nH]c3ccccc23)cc1OC (configuration not stated)	-2.31
Cc1noc(C)c1C1(O)CCCCCCCCCCC1	-0.117
Brc1ccc2c(c1)C(c1cccnc1)=NNC(c1cccs1)=N2	-0.465
Cc1sc2ccccc2[n+]1CCC(C)S(=O)(=O)[O-] (configuration not stated)	-0.108
CC(=O)Oc1ccc2c(=O)c(Oc3ccccc3)coc2c1OC(C)=O	-0.317
N#CCCn1cc(/C=N/O)c(-c2ccc(F)cc2)n1	-0.128
O=C(CCC(=O)OCc1cccc(C(=O)Oc2ccccc2)c1)Nc1cccc2ccccc12	-0.257

SMILES	z-score
CCC(=O)N1CCN(c2ccc(NC(=O)c3ccc(-c4ccccc4)cc3)cc2)CC1	0.0984
C=CCn1c(N)c(C(=O)Nc2ccc(C)cc2)sc1=S	-0.33
COc1cc(CNCc2cccs2)ccc1OCC(N)=O	-0.117
O=C(CN1CCN(S(=O)(=O)c2ccc(Cl)s2)CC1)NCc1ccc(Cl)cc1	-0.194
COc1cccc(-c2cc(C(=O)N3CCCCCC3)no2)c1	-0.146
CC(C)SC1=NC(C)(C)C=C(/C=C/c2c(Cl)cccc2Cl)N1	-0.226
O=C(COC(=O)[C@@H]1CCCN1C(=O)c1cccs1)NCCc1ccccc1	-0.189
O=C1CN(C(=O)c2ccccc2)c2ccccc2N1	0.62
COc1cccc(S(=O)(=O)Nc2ccc3sc(C)nc3c2)c1	0.296
COc1ccc(C2SCC(C(=O)NCc3ccc(F)cc3)N2C(C)=O)cc1 (configuration not stated)	0.16
CCOC(=O)C(C)Oc1cccc2c(=O)n(CC(=O)NCc3ccc4c(c3)OCO4)ccc12 (configuration not stated)	0.0188
O=C(Nc1ccccc1N1CCCCC1)c1cccc(F)c1	0.0251
CCOC(=O)N1CCN(C(=O)Cn2nc(-c3ccc(Cl)cc3)ccc2=O)CC1	0.862
COCCNC(=O)CN(C(=O)Cn1nnc2ccccc21)c1ccc(C)c(F)c1	0.414
CC(=O)C1=C(C)NC(SCC(=O)c2ccccc2)=C(C#N)C1c1ccco1 (configuration not stated)	-1.16
COc1ccc(C2CC(C(F)(F)F)n3ncc(C(=O)O)c3N2)cc1OC (configuration not stated)	0.197
CN(CCNC(=O)c1ccc(/C=N/O)nc1)Cc1ccccc1	-0.17
COc1cccc(NC(=O)c2oc3ccccc3c2NC(C)=O)c1	-0.17
O=C(COC(=O)CCC1CCCC1)Nc1ccc(Cl)cc1F	-0.306
O=S(=O)(Cc1ccccc1)N1CCN(Cc2ccc3c(c2)OCO3)CC1	-0.244
CC(=O)Nc1ccc(-c2nnc(SCC(=O)n3c4c(c5ccccc53)CCCC4)n2C)cc1	-0.361
O=C(NCCN1CCOCC1)C1CCN(c2ncnc3c2sc2cccc(F)c23)CC1	-0.949
CCOC(=O)C(C)Oc1cccc2c(=O)n(CC(=O)N3CCCc4ccccc43)ccc12 (configuration not stated)	-0.762

SMILES	z-score
Cc1ccc(-c2nnc(-c3ccccc3)c(N3CCOCC3)n2)cc1	0.194
Cc1cc(OCC[N+]2(C)CCCCC2)nc2ccccc12	0.0466
CCC(CC)NC(=O)Cc1ccccc1[N+](=O)[O-]	0.0136
COC(=O)c1cc(C(=O)OC)cc(N2C(=O)CC(N3CCN(c4ccccc4)CC3)C2=O)c1 (configuration not stated)	0.214
COc1nc(NCCO)nc(Nc2ccc([N+](=O)[O-])cc2)n1	-0.159
Cc1ccc2c(c1)NC(=O)C(CC(=O)O)O2 (configuration not stated)	-0.175
Cc1ccnc(SCC(=O)N2CCN(c3cccc(Cl)c3)CC2)n1	-0.324
CCOc1ccc(NC(=O)c2ccc3c(c2)N(Cc2ccc(F)cc2)C(=O)CS3=O)cc1 (configuration not stated)	-0.201
CC1(C)CC(=O)c2sc(NC(=O)c3cccs3)nc2C1	-0.0824
C=CCN1CN(Cc2ccco2)CNC1=S	0.23
Cc1ccc(NC(=O)Cc2ccc3c(c2)CCCC3)cc1C	0.121
CCOc1ccc(C(=O)Nc2nccs2)cc1[N+](=O)[O-]	-0.266
C#CCSc1nccc(-c2nn(-c3ccc(C)cc3)ccc2=O)n1	-0.477
O=C(NC(=S)Nc1ccc(N2CCCCC2)cc1)c1ccc2c(c1)OCCO2	0.0318
CC(O)(C#CCN1CCCCC1)c1ccccc1 (configuration not stated)	-0.0414
Cc1ccccc1OCCOc1cccc(/C=N/NC(=O)Cc2nnc(N)s2)c1	-0.406
CCCCCn1c(SCC2CCCO2)nc2cc(C(=O)N3CCC(C(N)=O)CC3)ccc2c1=O (configuration not stated)	-0.409
Cc1ccc(NC(=O)c2ccc(CSc3nnc(C)s3)cc2)cc1	0.00986
CN(C)CCNC(=O)c1cc(Br)ccc1Cl	0.194
COc1ccc2[nH]c3c(=O)n(N)c(C)nc3c2c1	-0.355
